Test [1] addresses T1, Human CD20 (human, UniProt P11836 1-297).
T1 construct: also called Bp35
T1 sequence: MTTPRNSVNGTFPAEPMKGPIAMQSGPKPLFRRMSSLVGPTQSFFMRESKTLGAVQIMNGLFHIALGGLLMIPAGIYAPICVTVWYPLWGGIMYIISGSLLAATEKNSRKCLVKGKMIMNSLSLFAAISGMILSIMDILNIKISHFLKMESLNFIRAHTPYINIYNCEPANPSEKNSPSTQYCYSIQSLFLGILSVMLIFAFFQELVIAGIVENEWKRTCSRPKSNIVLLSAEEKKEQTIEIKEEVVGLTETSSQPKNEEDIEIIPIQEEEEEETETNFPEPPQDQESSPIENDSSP
Briefly: flow cytometry on primary human B cells, binder at 10 ug/ml (first block). A general note: In flow cytometry, cells or beads pass a laser one at a time.

The target in test [2] is T1, Human CD20. Kind of test: flow cytometry on primary human B cells, binder at 0.37 ug/ml (first block).
The target in test [3] is T1, Human CD20. Kind of test: flow cytometry on primary human B cells, binder at 1.1 ug/ml (first block).
The target of test [4] is T1, Human CD20. Kind of test: flow cytometry on primary human B cells, binder at 0.04 ug/ml (second block).
The target in test [5] is T1, Human CD20. Kind of test: flow cytometry on primary human B cells, binder at 10 ug/ml (second block).
In test [6] the target is T2, Human CD20 (UniProt P11836 1-297).
T2 chain: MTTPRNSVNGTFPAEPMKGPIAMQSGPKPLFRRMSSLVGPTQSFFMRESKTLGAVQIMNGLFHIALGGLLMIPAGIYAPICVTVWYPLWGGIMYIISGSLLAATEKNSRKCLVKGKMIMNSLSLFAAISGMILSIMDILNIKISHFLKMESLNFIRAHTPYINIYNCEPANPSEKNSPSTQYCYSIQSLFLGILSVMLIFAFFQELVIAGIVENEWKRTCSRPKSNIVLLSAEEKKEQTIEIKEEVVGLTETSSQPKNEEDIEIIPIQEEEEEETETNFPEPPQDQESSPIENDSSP
Briefly: flow cytometry.

Test [7] concerns the target T1, Human CD20. Kind of test: flow cytometry on primary human B cells, binder at 0.12 ug/ml (first block).
Test [8] has as its target T1, Human CD20. Briefly: cell-based or functional assay.
The target in test [9] is T1, Human CD20. Briefly: flow cytometry on primary human B cells, binder at 0.12 ug/ml (second block).
The target of test [10] is T1, Human CD20. Kind of test: flow cytometry on primary human B cells, binder at 1.1 ug/ml (second block).

B1: 18008 sccp (Fc fusion)
chain: EIVLTQSPATLSLSPGERATLSCRASQSVSYMHWYQQKPGQAPRLLIYAPSNLASGIPARFSGSGSGTDFTLTISSLEPEDFAVYYCQQWSFNPPTFGQGTKVEIKDGGGSGGGGSGGGGTGEVQLVQSGAEVKKPGESLKISCKGSGYSFTSYNMHWVRQMPGKGLEWMGAIYPGNGDTSYNQKFKGQVTISADKSISTAYLQWSSLKASDTAMYYCARVVYYSNSYWYFDLWGRGTLVTVSSDQ[skipping human IgG1 Fc with changes]
notes: Humanized SMIP; Hinge and Fc are assigned from the name's suffix
As to B1, the MFI with Human CD20 [1] amounted to 79.5 MFI; in the test with Human CD20 [2] it was 24.8 MFI; with Human CD20 [3] it was 44.8 MFI; in the test with Human CD20 [4], 6.1 MFI; in the test with Human CD20 [5], 64.7 MFI; in the test with Human CD20 [7], 13 MFI. In addition, the figures for the MFI with Human CD20 [9] and with Human CD20 [10] were 12.9 MFI and 20.7 MFI, respectively. In the test with Human CD20 [6], this molecule registered an EC50 of 1.75 µg/mL. Further, the “% lysis (CDC on Ramos cells), 0.12 ug/ml” value in the test with Human CD20 [8] is 32.2 % lysis. In addition, in the test with Human CD20 [8], the “% lysis (CDC on Ramos cells), 0.37 ug/ml” value came out at 47.9 % lysis. Moreover, the “% lysis (CDC on Ramos cells), 1.1 ug/ml” value with Human CD20 [8] worked out at 57.1 % lysis. Also, the “% lysis (CDC on Ramos cells), 10 ug/ml” value with Human CD20 [8] worked out at 72.5 % lysis. Besides, in the test with Human CD20 [8], the “% lysis (CDC on Ramos cells), 1 nm” value came to 50 % lysis. In the test with Human CD20 [8], the “% lysis (CDC on Ramos cells), 4 nm” value was 61.4 % lysis. Besides, the “% lysis (CDC on Ramos cells), 11 nm” value with Human CD20 [8] worked out at 66.7 % lysis. Further, in the test with Human CD20 [8], the “% lysis (CDC on Ramos cells), 100 nm” value came to 73.9 % lysis.

B2: 018008 csc (Fc fusion)
chain: EIVLTQSPATLSLSPGERATLSCRASQSVSYMHWYQQKPGQAPRLLIYAPSNLASGIPARFSGSGSGTDFTLTISSLEPEDFAVYYCQQWSFNPPTFGQGTKVEIKDGGGSGGGGSGGGGTGEVQLVQSGAEVKKPGESLKISCKGSGYSFTSYNMHWVRQMPGKGLEWMGAIYPGNGDTSYNQKFKGQVTISADKSISTAYLQWSSLKASDTAMYYCARVVYYSNSYWYFDLWGRGTLVTVSSDQ[skipping human IgG1 Fc with C226S P230S (EU numbers)]
notes: as for B1
B2: it took 1.55 µg/mL to reach a half-maximal effect with Human CD20 [6] (EC50).

B3: 2LM 16 csc (Fc fusion)
chain: EIVLTQSPATLSLSPGERATLSCRASSSVSYMHWYQQKPGQAPRLLIYAPSNLASGIPARFSGSGSGTDFTLTISSLEPEDFAVYYCQQWSFNPPTFGQGTKVEIKDGGGSGGGGSGGGGSSQVQLVQSGAEVKKPGASVKVSCKASGYTFTSYNMHWVRQAPGQGLEWMGAIYPGNGDTSYNQKFKGRVTMTRDTSTSTVYMELSSLRSEDTAVYYCARSYYSNSYWYFDLWGRGTLVTVSSDQ[skipping human IgG1 Fc with C226S P230S (EU numbers)]
Consider B3, for which, in the test with Human CD20 [6], the EC50 turned out to be 0.354 µg/mL. This EC50 lies about 4.4-fold lower than the previous one.

B4: 2LM 19-3 csc (Fc fusion)
chain: EIVLTQSPATLSLSPGERATLSCRASQSVSYIVWYQQKPGQAPRLLIYAPSNLASGIPARFSGSGSGTDFTLTISSLEPEDFAVYYCQQWSFNPPTFGQGTKVEIKDGGGSGGGGSGGGGSSQVQLVQSGAEVKKPGASVKVSCKASGYTFTSYNMHWVRQAPGQGLEWMGAIYPGNGDTSYNQKFKGRVTMTRDTSTSTVYMELSSLRSEDTAVYYCARSYYSNSYWYFDLWGRGTLVTVSSDQ[skipping human IgG1 Fc with C226S P230S (EU numbers)]
notes: Humanized SMIP; Hinge and Fc are assigned from the name's suffix; also called 2LM 19-3 CSCS
Molecule B4 registered an EC50 with Human CD20 [6] of 0.301 µg/mL.

B5: 2LM 20-4 csc (Fc fusion)
chain: EIVLTQSPATLSLSPGERATLSCRASSSVSYIVWYQQKPGQAPRLLIYAPSNLASGIPARFSGSGSGTDFTLTISSLEPEDFAVYYCQQWSFNPPTFGQGTKVEIKDGGGSGGGGSGGGGSSQVQLVQSGAEVKKPGASVKVSCKASGYTFTSYNMHWVRQAPGQGLEWMGAIYPGNGDTSYNQKFKGRVTMTRDTSTSTVYMELSSLRSEDTAVYYCARSYYSNSYWYFDLWGRGTLVTVSSDQ[skipping human IgG1 Fc with C226S P230S (EU numbers)]
notes: Humanized SMIP; also called 2 LM 20-4 CSCS
In turn, B5 registered an EC50 in the test with Human CD20 [6] of 0.322 µg/mL.

Usually EC50 stands for the concentration giving half of the maximal effect. A low value points to greater potency.

These data come from patent US20100330089A1 (Pfizer, published 2010).
